# In the supplement of paper PMC8728848:
# This is one part of the list.
# B1: AAL (Agrocybe aegerita), Q6WY08 (protein)
# chain: MQGVNIYNISAGTSVDLAAPVTTGDIVTFFSSALNLNAGAGNPNNTTLNLFAENGAYLLHIAHRLQENVIIFNSRQPDGPWLVEQRVSDVANQFAGIDGKAMVTVFDHGDKYQVVINEKTVIQYTKQISGLTLSLSYNATEETSIFSTVVEAVTYTGLALEHHHHHH
# Legend:
# Assay in all cases: glycan array binding signal (z-score within array); higher = stronger binding
# Settings in all cases: glycan notation: IUPAC condensed, linker removed; mutation: F63H
# [1] = target: Gal(a1-6)Glc
# Summary of the method: (§1)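 The binding signal is a Z-score computed within each array. Data were drawn from 3228 arrays in the Consortium for Functional Glycomics database, restricted to those with a known protein sequence. Scores were averaged over arrays of the same protein sequence at different concentrations or buffers, and over linkers, and negative values can be taken as non-binding.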
# [2] = target: Gal(b1-2)Gal
# Summary of the method: as §1
# [3] = target: Gal(b1-3)Gal
# Summary of the method: as §1
# [4] = target: Gal(b1-3)Gal(b1-4)GlcNAc
# Summary of the method: as §1
# [5] = target: Gal(b1-3)GalNAc
# Summary of the method: as §1
# [6] = target: Gal(b1-3)GalNAc(a1-3)[Fuc(a1-2)]Gal(b1-4)Glc
# Summary of the method: as §1
# [7] = target: Gal(b1-3)GalNAc(a1-3)[Fuc(a1-2)]Gal(b1-4)GlcNAc
# Summary of the method: as §1
# [8] = target: Gal(b1-3)GalNAc(b1-3)Gal
# Summary of the method: as §1
# [9] = target: Gal(b1-3)GalNAc(b1-3)Gal(a1-4)Gal(b1-4)Glc
# Summary of the method: as §1
# [10] = target: Gal(b1-3)GalNAc(b1-4)Gal(b1-4)Glc
# Summary of the method: as §1
# [11] = target: Gal(b1-3)GalNAc(b1-4)[Neu5Ac(a2-3)]Gal(b1-4)Glc
# Summary of the method: as §1
# [12] = target: Gal(b1-3)GlcNAc
# Summary of the method: as §1
# [13] = target: Gal(b1-3)GlcNAc(a1-3)Gal(b1-4)GlcNAc
# Summary of the method: as §1
# [14] = target: Gal(b1-3)GlcNAc(a1-6)Gal(b1-4)GlcNAc
# Summary of the method: as §1
# [15] = target: Gal(b1-3)GlcNAc(b1-2)Man
# Summary of the method: as §1
# [16] = target: Gal(b1-3)GlcNAc(b1-2)Man(a1-3)[Gal(b1-3)GlcNAc(b1-2)Man(a1-6)]Man(b1-4)GlcNAc(b1-4)GlcNAc
# Summary of the method: as §1
# [17] = target: Gal(b1-3)GlcNAc(b1-2)Man(a1-3)[Gal(b1-3)GlcNAc(b1-2)Man(a1-6)]Man(b1-4)GlcNAc(b1-4)[Fuc(a1-6)]GlcNAc
# Summary of the method: as §1
# [18] = target: Gal(b1-3)GlcNAc(b1-2)Man(a1-3)[GlcNAc(b1-4)][Gal(b1-3)GlcNAc(b1-2)Man(a1-6)]Man(b1-4)GlcNAc(b1-4)GlcNAc
# Summary of the method: as §1
# [19] = target: Gal(b1-3)GlcNAc(b1-2)[Gal(b1-3)GlcNAc(b1-6)]Man(a1-6)[Gal(b1-3)GlcNAc(b1-2)Man(a1-3)]Man(b1-4)GlcNAc(b1-4)GlcNAc
# Summary of the method: as §1
# [20] = target: Gal(b1-3)GlcNAc(b1-3)Gal(b1-3)GlcNAc
# Summary of the method: as §1
# [21] = target: Gal(b1-3)GlcNAc(b1-3)Gal(b1-4)Glc
# Summary of the method: as §1
# [22] = target: Gal(b1-3)GlcNAc(b1-3)Gal(b1-4)GlcNAc
# Summary of the method: as §1
# [23] = target: Gal(b1-3)GlcNAc(b1-3)Gal(b1-4)GlcNAc(b1-2)Man(a1-3)[Gal(b1-3)GlcNAc(b1-3)Gal(b1-4)GlcNAc(b1-2)Man(a1-6)]Man(b1-4)GlcNAc(b1-4)GlcNAc
# Summary of the method: as §1
# [24] = target: Gal(b1-3)GlcNAc(b1-3)Gal(b1-4)GlcNAc(b1-2)[Gal(b1-3)GlcNAc(b1-3)Gal(b1-4)GlcNAc(b1-6)]Man(a1-6)[Gal(b1-3)GlcNAc(b1-3)Gal(b1-4)GlcNAc(b1-2)Man(a1-3)]Man(b1-4)GlcNAc(b1-4)[Fuc(a1-6)]GlcNAc
# Summary of the method: as §1
# [25] = target: Gal(b1-3)GlcNAc(b1-3)Gal(b1-4)GlcNAc(b1-3)Gal(b1-4)GlcNAc(b1-2)[Gal(b1-3)GlcNAc(b1-3)Gal(b1-4)GlcNAc(b1-3)Gal(b1-4)GlcNAc(b1-6)]Man(a1-6)[Gal(b1-3)GlcNAc(b1-3)Gal(b1-4)GlcNAc(b1-3)Gal(b1-4)GlcNAc(b1-2)Man(a1-3)]Man(b1-4)GlcNAc(b1-4)[Fuc(a1-6)]GlcNAc
# Summary of the method: as §1
# [26] = target: Gal(b1-3)GlcNAc(b1-3)Gal(b1-4)GlcNAc(b1-6)[Gal(b1-3)GlcNAc(b1-3)]Gal(b1-4)Glc
# Summary of the method: as §1
# [27] = target: Gal(b1-3)GlcNAc(b1-3)Gal(b1-4)[Fuc(a1-3)]GlcNAc
# Summary of the method: as §1
# [28] = target: Gal(b1-3)GlcNAc(b1-3)Gal(b1-4)[Fuc(a1-3)]GlcNAc(b1-6)[Gal(b1-3)GlcNAc(b1-3)]Gal(b1-4)Glc
# Summary of the method: as §1
# [29] = target: Gal(b1-3)GlcNAc(b1-3)GalNAc
# Summary of the method: as §1
# [30] = target: Gal(b1-3)GlcNAc(b1-6)Gal(b1-4)GlcNAc
# Summary of the method: as §1
# [31] = target: Gal(b1-3)GlcNAc(b1-6)GalNAc
# Summary of the method: as §1
# [32] = target: Gal(b1-3)GlcNAc(b1-6)[Gal(b1-3)]GalNAc
# Summary of the method: as §1
# [33] = target: Gal(b1-3)GlcNAc6S
# Summary of the method: as §1
# [34] = target: Gal(b1-3)[Fuc(a1-4)]GlcNAc
# Summary of the method: as §1
# [35] = target: Gal(b1-3)[Fuc(a1-4)]GlcNAc(b1-2)Man
# Summary of the method: as §1
# [36] = target: Gal(b1-3)[Fuc(a1-4)]GlcNAc(b1-2)Man(a1-3)[Gal(b1-3)[Fuc(a1-4)]GlcNAc(b1-2)Man(a1-6)]Man(b1-4)GlcNAc(b1-4)[Fuc(a1-6)]GlcNAc
# Summary of the method: as §1
# [37] = target: Gal(b1-3)[Fuc(a1-4)]GlcNAc(b1-3)Gal(b1-3)[Fuc(a1-4)]GlcNAc
# Summary of the method: as §1
# [38] = target: Gal(b1-3)[Fuc(a1-4)]GlcNAc(b1-3)Gal(b1-4)[Fuc(a1-3)]GlcNAc
# Summary of the method: as §1
# [39] = target: Gal(b1-3)[Fuc(a1-4)]GlcNAc(b1-6)GalNAc
# Summary of the method: as §1
# [40] = target: Gal(b1-3)[GlcNAc(b1-6)]GalNAc
# Summary of the method: as §1
# [41] = target: Gal(b1-3)[Neu5Ac(a2-6)]GalNAc
# Summary of the method: as §1
# [42] = target: Gal(b1-3)[Neu5Ac(a2-6)]GlcNAc(b1-4)Gal(b1-4)Glc
# Summary of the method: as §1
# [43] = target: Gal(b1-3)[Neu5Ac(b2-6)]GalNAc
# Summary of the method: as §1
# [44] = target: Gal(b1-4)Gal
# Summary of the method: as §1
# [45] = target: Gal(b1-4)GalNAc(a1-3)[Fuc(a1-2)]Gal(b1-4)GlcNAc
# Summary of the method: as §1
binder,measurement,setting,value
B1,glycan array binding signal (z-score),[1],0.059
same,glycan array binding signal (z-score),[2],-0.365
same,glycan array binding signal (z-score),[3],-0.026
same,glycan array binding signal (z-score),[4],-0.287
same,glycan array binding signal (z-score),[5],-0.177
same,glycan array binding signal (z-score),[6],-0.298
same,glycan array binding signal (z-score),[7],-0.341
same,glycan array binding signal (z-score),[8],0.645
same,glycan array binding signal (z-score),[9],-0.387
same,glycan array binding signal (z-score),[10],-0.435
same,glycan array binding signal (z-score),[11],0.145
same,glycan array binding signal (z-score),[12],-0.2
same,glycan array binding signal (z-score),[13],0.927
same,glycan array binding signal (z-score),[14],-0.177
same,glycan array binding signal (z-score),[15],0.215
same,glycan array binding signal (z-score),[16],-0.052
same,glycan array binding signal (z-score),[17],0.392
same,glycan array binding signal (z-score),[18],-0.226
same,glycan array binding signal (z-score),[19],0.041
same,glycan array binding signal (z-score),[20],-0.353
same,glycan array binding signal (z-score),[21],-0.312
same,glycan array binding signal (z-score),[22],-1.05
same,glycan array binding signal (z-score),[23],0.297
same,glycan array binding signal (z-score),[24],0.835
same,glycan array binding signal (z-score),[25],0.029
same,glycan array binding signal (z-score),[26],-0.01
same,glycan array binding signal (z-score),[27],-0.305
same,glycan array binding signal (z-score),[28],0.216
same,glycan array binding signal (z-score),[29],-0.11
same,glycan array binding signal (z-score),[30],-0.72
same,glycan array binding signal (z-score),[31],0.316
same,glycan array binding signal (z-score),[32],-0.137
same,glycan array binding signal (z-score),[33],-0.136
same,glycan array binding signal (z-score),[34],-0.36
same,glycan array binding signal (z-score),[35],0.665
same,glycan array binding signal (z-score),[36],-0.096
same,glycan array binding signal (z-score),[37],0.303
same,glycan array binding signal (z-score),[38],0.002
same,glycan array binding signal (z-score),[39],0.294
same,glycan array binding signal (z-score),[40],-0.12
same,glycan array binding signal (z-score),[41],0.235
same,glycan array binding signal (z-score),[42],0.571
same,glycan array binding signal (z-score),[43],0.218
same,glycan array binding signal (z-score),[44],-0.522
same,glycan array binding signal (z-score),[45],-0.29
